Results from publication PMC8233366.
Where a chain is given by its changes, count along the chain named. Results are given in words; binding and its absence hold for the method and conditions named. In cells and extracts the contact can be indirect. Some entries that bind do so weakly or less than the wild type. Where a sequence is shown, tags or fusion partners need not be part of it. Values belong to the binder of their own block, whether it stands above or below them.

How the values were obtained:
Test in all cases: co-IP; FLAG-tagged SMG7 constructs expressed in SMG7 KO cells; lysis in buffer E (20 mM HEPES-KOH pH 7.9, 100 mM KCl, 10% glycerol, 1 mM DTT, 1 µg/ml RNase A); Anti-FLAG M2 magnetic beads, 2 h at 4 °C; immunoblot (Fig. 2c, Extended Data Fig. 3f)
[1] = target: T1, FLAG-tagged SMG7 1-633 (human) (UniProt Q92540)
T1 sequence: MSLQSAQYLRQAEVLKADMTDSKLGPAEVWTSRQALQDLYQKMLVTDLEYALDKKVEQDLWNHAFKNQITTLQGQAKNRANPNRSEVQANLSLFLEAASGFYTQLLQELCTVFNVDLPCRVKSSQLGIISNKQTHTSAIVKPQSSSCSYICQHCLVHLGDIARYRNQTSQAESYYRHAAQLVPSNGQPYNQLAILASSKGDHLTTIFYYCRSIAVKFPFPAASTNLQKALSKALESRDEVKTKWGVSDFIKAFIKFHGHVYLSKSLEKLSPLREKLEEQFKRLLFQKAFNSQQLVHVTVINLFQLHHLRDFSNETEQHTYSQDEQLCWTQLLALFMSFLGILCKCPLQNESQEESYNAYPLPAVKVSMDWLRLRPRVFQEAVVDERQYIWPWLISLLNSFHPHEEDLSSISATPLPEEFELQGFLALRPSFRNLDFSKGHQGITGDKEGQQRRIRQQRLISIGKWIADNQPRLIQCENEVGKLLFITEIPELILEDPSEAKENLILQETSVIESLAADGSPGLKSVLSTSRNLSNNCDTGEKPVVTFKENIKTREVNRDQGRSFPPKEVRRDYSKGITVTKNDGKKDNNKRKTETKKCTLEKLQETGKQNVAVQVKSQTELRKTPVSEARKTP

[2] = target: T2, FLAG-tagged SMG7 1-633 G100E (human) (UniProt Q92540)
T2 sequence: T1 sequence with G100E

[3] = target: T3, FLAG-tagged SMG7 G100E (human) (UniProt Q92540)
T3 sequence: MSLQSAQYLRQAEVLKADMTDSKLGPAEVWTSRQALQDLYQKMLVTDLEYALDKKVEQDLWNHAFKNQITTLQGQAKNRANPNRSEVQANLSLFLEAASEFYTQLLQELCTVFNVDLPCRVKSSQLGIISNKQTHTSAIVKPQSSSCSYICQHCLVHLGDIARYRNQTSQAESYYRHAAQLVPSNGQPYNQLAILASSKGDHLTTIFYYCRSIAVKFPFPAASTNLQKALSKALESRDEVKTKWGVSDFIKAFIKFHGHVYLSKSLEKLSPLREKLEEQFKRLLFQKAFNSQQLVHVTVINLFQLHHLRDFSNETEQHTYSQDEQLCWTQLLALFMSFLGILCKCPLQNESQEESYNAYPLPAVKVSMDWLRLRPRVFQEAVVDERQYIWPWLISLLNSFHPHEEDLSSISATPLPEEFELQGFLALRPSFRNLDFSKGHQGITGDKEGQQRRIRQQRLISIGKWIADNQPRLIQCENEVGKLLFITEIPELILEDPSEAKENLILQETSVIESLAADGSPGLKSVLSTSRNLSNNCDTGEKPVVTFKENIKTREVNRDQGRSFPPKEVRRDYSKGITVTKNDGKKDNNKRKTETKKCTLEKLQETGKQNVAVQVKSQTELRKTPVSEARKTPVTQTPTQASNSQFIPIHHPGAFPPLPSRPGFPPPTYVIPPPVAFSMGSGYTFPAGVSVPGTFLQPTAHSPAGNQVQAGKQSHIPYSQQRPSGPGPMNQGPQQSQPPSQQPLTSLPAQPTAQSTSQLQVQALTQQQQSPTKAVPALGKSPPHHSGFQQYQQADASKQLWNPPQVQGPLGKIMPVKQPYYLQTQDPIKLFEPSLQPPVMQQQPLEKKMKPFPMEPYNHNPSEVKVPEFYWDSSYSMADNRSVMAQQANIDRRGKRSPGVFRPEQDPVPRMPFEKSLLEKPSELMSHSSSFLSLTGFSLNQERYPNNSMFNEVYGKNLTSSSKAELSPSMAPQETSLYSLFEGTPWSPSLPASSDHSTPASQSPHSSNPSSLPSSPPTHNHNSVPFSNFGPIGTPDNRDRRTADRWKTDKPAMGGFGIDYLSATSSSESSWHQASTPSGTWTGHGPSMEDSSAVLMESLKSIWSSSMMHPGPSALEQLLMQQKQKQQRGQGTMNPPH

[4] = target: T4, FLAG-tagged SMG7 WT (human) (UniProt Q92540)
T4 sequence: T3 sequence with E100G

binding [1]: binds
binding [2]: binds
binding [3]: binds
binding [4]: binds
B1: UPF1 (endogenous) (protein, UniProt Q92900 1-1129)
chain: MSVEAYGPSSQTLTFLDTEEAELLGADTQGSEFEFTDFTLPSQTQTPPGGPGGPGGGGAGGPGGAGAGAAAGQLDAQVGPEGILQNGAVDDSVAKTSQLLAELNFEEDEEDTYYTKDLPIHACSYCGIHDPACVVYCNTSKKWFCNGRGNTSGSHIVNHLVRAKCKEVTLHKDGPLGETVLECYNCGCRNVFLLGFIPAKADSVVVLLCRQPCASQSSLKDINWDSSQWQPLIQDRCFLSWLVKIPSEQEQLRARQITAQQINKLEELWKENPSATLEDLEKPGVDEEPQHVLLRYEDAYQYQNIFGPLVKLEADYDKKLKESQTQDNITVRWDLGLNKKRIAYFTLPKTDSGNEDLVIIWLRDMRLMQGDEICLRYKGDLAPLWKGIGHVIKVPDNYGDEIAIELRSSVGAPVEVTHNFQVDFVWKSTSFDRMQSALKTFAVDETSVSGYIYHKLLGHEVEDVIIKCQLPKRFTAQGLPDLNHSQVYAVKTVLQRPLSLIQGPPGTGKTVTSATIVYHLARQGNGPVLVCAPSNIAVDQLTEKIHQTGLKVVRLCAKSREAIDSPVSFLALHNQIRNMDSMPELQKLQQLKDETGELSSADEKRYRALKRTAERELLMNADVICCTCVGAGDPRLAKMQFRSILIDESTQATEPECMVPVVLGAKQLILVGDHCQLGPVVMCKKAAKAGLSQSLFERLVVLGIRPIRLQVQYRMHPALSAFPSNIFYEGSLQNGVTAADRVKKGFDFQWPQPDKPMFFYVTQGQEEIASSGTSYLNRTEAANVEKITTKLLKAGAKPDQIGIITPYEGQRSYLVQYMQFSGSLHTKLYQEVEIASVDAFQGREKDFIILSCVRANEHQGIGFLNDPRRLNVALTRARYGVIIVGNPKALSKQPLWNHLLNYYKEQKVLVEGPLNNLRESLMQFSKPRKLVNTINPGARFMTTAMYDAREAIIPGSVYDRSSQGRPSSMYFQTHDQIGMISAGPSHVAAMNIPIPFNLVMPPMPPPGYFGQANGPAAGRGTPKGKTGRGGRQKNRFGLPGPSQTNLPNSQASQDVASQPFSQGALTQGYISMSQPSQMSQPGLSQPELSQDSYLGDEFKSQIDVALSQDSTYQGERAYQHGGVTGLSQY

binding [3]: no binding
B2: SMG5 (endogenous) (protein, UniProt Q9UPR3 1-1016)
chain: MSQGPPTGESSEPEAKVLHTKRLYRAVVEAVHRLDLILCNKTAYQEVFKPENISLRNKLRELCVKLMFLHPVDYGRKAEELLWRKVYYEVIQLIKTNKKHIHSRSTLECAYRTHLVAGIGFYQHLLLYIQSHYQLELQCCIDWTHVTDPLIGCKKPVSASGKEMDWAQMACHRCLVYLGDLSRYQNELAGVDTELLAERFYYQALSVAPQIGMPFNQLGTLAGSKYYNVEAMYCYLRCIQSEVSFEGAYGNLKRLYDKAAKMYHQLKKCETRKLSPGKKRCKDIKRLLVNFMYLQSLLQPKSSSVDSELTSLCQSVLEDFNLCLFYLPSSPNLSLASEDEEEYESGYAFLPDLLIFQMVIICLMCVHSLERAGSKQYSAAIAFTLALFSHLVNHVNIRLQAELEEGENPVPAFQSDGTDEPESKEPVEKEEEPDPEPPPVTPQVGEGRKSRKFSRLSCLRRRRHPPKVGDDSDLSEGFESDSSHDSARASEGSDSGSDKSLEGGGTAFDAETDSEMNSQESRSDLEDMEEEEGTRSPTLEPPRGRSEAPDSLNGPLGPSEASIASNLQAMSTQMFQTKRCFRLAPTFSNLLLQPTTNPHTSASHRPCVNGDVDKPSEPASEEGSESEGSESSGRSCRNERSIQEKLQVLMAEGLLPAVKVFLDWLRTNPDLIIVCAQSSQSLWNRLSVLLNLLPAAGELQESGLALCPEVQDLLEGCELPDLPSSLLLPEDMALRNLPPLRAAHRRFNFDTDRPLLSTLEESVVRICCIRSFGHFIARLQGSILQFNPEVGIFVSIAQSEQESLLQQAQAQFRMAQEEARRNRLMRDMAQLRLQLEVSQLEGSLQQPKAQSAMSPYLVPDTQALCHHLPVIRQLATSGRFIVIIPRTVIDGLDLLKKEHPGARDGIRYLEAEFKKGNRYIRCQKEVGKSFERHKLKRQDADAWTLYKILDSCKQLTLAQGAGEEDPSGMVTIITGLPLDNPSVLSGPMQAALQAAAHASVDIKNVLDFYKQWKEIG
